Among all 410,000 compounds or so, about 260 (0.063%) were called active. The shares of active, inactive and inconclusive entries below differ from those in the screen. The call rests on the fitted dose curve; in most records, active means well fitted activation curve with a large enough effect; inconclusive means small, poorly fitted or top-dose-only effect; inactive means no such curve, though single readings can be large or run the other way. Potencies of inconclusive entries are left out as doubtful fits.
Test: qHTS for compounds that reverse cellular toxicity of Amyloid beta (A-beta) peptide in yeast: Primary Screen; further: nearly all actives have a fitted effect of over 55% in size
Settings: yeast expressing A-beta42, growth rescue, OD600, 48 h; growth rescue: at 46.1 µM (top of the series), 0% DMSO, 100% iron-clioquinol control
How it was run: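 Growth rescue measured by 600 nm absorbance after 48 h yeast culture at 30 C with compound. Values normalized between DMSO and an equimolar ferric chloride plus clioquinol control.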
With `CCN=c1scc(-c2ccccc2)n1/N=C/c1ccccn1` the Potency was inconclusive [activator, single point].
With `CC(C)c1cc(C(N)=O)c(NC(=O)c2cccc(COc3ccc(Br)cc3)c2)s1` the Potency was inconclusive [activator, partial curve].
For `CC(C)C(NC(=O)c1ccc(C(C)(C)C)cc1)C(=O)NCCc1ccccn1` (configuration not stated), the Potency was inconclusive [activator, partial curve, poor fit].
In the case of `CCN1C(=O)[C@H]2[C@@H](c3ccc(C(F)(F)F)cc3)N[C@]3(CCCN(Cc4ccc(C(F)(F)F)cc4)C3=O)[C@H]2C1=O`, the Potency is reported as inconclusive [activator, single point].
For `CCCCC(=O)NC(c1ccccc1Cl)c1ccc2cccnc2c1O` (configuration not stated), the Potency was inconclusive [activator, single point].
In the case of `Cc1cccc(C)c1N(CC(=O)NCc1ccc(F)cc1)C(=O)c1csnn1`, the Potency is reported as inconclusive [activator, partial curve, poor fit].
For `COc1ccc(-c2nnc(SC)o2)c(OC)c1`, the “growth rescue” value was inactive: -3.8%.
In the case of `COCc1cccc(-c2csc(C(O)c3ccc(F)c(OC)c3)n2)c1` (configuration not stated), the Potency is reported as inconclusive [activator, partial curve].
With `CC(C)CN1CC(C)C(=O)NC1=S` (configuration not stated) the “growth rescue” value was inactive: 0%.
With `COc1ccc(-c2csc(C(O)(c3ccccc3)C(F)(F)F)n2)cc1` (configuration not stated) the Potency was inconclusive [activator, single point].
With `CCC(C)c1ccc(C(C)NC(=S)NCc2ccc(F)cc2)cc1` (configuration not stated) the Potency was active: 3.55 µM.
For `CCOC(=O)c1cccc(NC(=O)C(Cc2ccccc2)NS(=O)(=O)c2cccc3nsnc23)c1` (configuration not stated), the “growth rescue” value was inactive: 2.38%.
With `Cc1ccc(NC(=S)NNC(=S)Nc2cccc(C(F)(F)F)c2)cc1` the Potency was inconclusive [activator, full curve, poor fit].
With `O=C(COC(=O)CC1CC2CCC1C2)Nc1cc([N+](=O)[O-])ccc1F` (configuration not stated) the Potency was inconclusive [activator, single point].
With `O=C(CSC1=Nc2ccccc2N=C(c2ccc(F)cc2)C1)NCc1ccc(Cl)cc1` the “growth rescue” value was inactive: -4.19%.
In the case of `CCCCCC1CC(=O)N(Cc2ccc(Cl)cc2)C(=O)N1` (configuration not stated), the Potency is reported as inconclusive [activator, full curve, poor fit].
With `CCN(CC)S(=O)(=O)c1cccc(-c2nnc(-c3ccc(C)cc3)o2)c1` the Potency was inconclusive [activator, single point].
With `O=C(Nc1ccon1)Nc1ccccc1C(F)(F)F` the “growth rescue” value was inactive: -8.3%.
With `Cc1cc(OCc2cc(C(=O)N3CCN(C)C(=O)[C@@H]3C)no2)cc(C)c1Cl` the Potency was inconclusive [activator, partial curve].
For `C=CCn1c(-c2cccc(OCC)c2)n[nH]c1=S`, the Potency was inconclusive [activator, single point].
In the case of `C[C@@H]1C(c2ccc(F)cc2)=NN(c2ccc(Br)cc2)[C@H]1C(=O)N1CCOC1=O`, the Potency is reported as inconclusive [activator, partial curve, poor fit].
With `Cc1nn(CCC(=O)N2CCN(S(=O)(=O)c3ccc(Cl)cc3)CC2)c(C)c1C` the “growth rescue” value was inactive: -12.7%.
For `Cc1c(C(=O)N2CCN(S(=O)(=O)c3cc(F)ccc3F)CC2)oc2ccccc12`, the “growth rescue” value was inactive: -8.83%.
In the case of `COc1cccc(CNC(=O)CCCn2nc(C)n3c(cc4sccc43)c2=O)c1`, the Potency is reported as inconclusive [activator, single point].
In the case of `C/C(=N\NC(=S)Nc1ccccc1C)c1cc2ccccc2o1`, the Potency is reported as inconclusive [activator, partial curve, poor fit].
For `CCOP(=O)(OCC)/C(C#N)=C/c1ccc([N+](=O)[O-])cc1`, the Potency was inconclusive [activator, partial curve, poor fit].
For `Cc1ccc(OCc2n[nH]c(=S)n2-c2ccccc2)cc1C`, the Potency was inconclusive [activator, single point].
In the case of `Oc1cccc(/C=N/c2c(-c3ccco3)nc3ccccn23)c1`, the growth rescue is reported as inconclusive: -61.3% [activator].
With `COc1cc(NC(=S)NC(C)(C)C)c(OC)cc1Cl` the Potency was inconclusive [activator, single point].
For `COc1ccc(Nc2nccc3c2nnn3C)cc1`, the Potency was inconclusive [activator, full curve].
In the case of `CCN(CC)c1ccc(/C=N/NC(=O)c2c(Cl)cnn2C)c(O)c1`, the Potency is reported as inconclusive [activator, single point].
With `CC(C)C[C@H]1CN([C@@H](CC(C)C)CN2CCCC2CN2C(=S)NC[C@@H]2Cc2ccccc2)C(=S)N1CCc1ccccc1` (some centres not stated) the Potency was inconclusive [activator, single point].
For `CCOc1ccc(NC(=O)Cn2c(=O)n(Cc3ccc(C(=O)NCc4ccc(C)cc4)cc3)c(=O)c3ccccc32)cc1`, the “growth rescue” value was inactive: -0.981%.
In the case of `CCCCCCN(C(=O)CCl)c1ccccc1`, the “growth rescue” value is reported as inactive: -17.7%.
For `CN(CC(=O)Nc1c(Cl)cccc1Cl)C(=O)c1cccc(-n2cccc2)c1`, the “growth rescue” value was inactive: 0.88%.
With `Cc1ccc2c(c1)[C@H]1[C@H](CO2)[C@H](c2ccccc2)[C@]2(C)C(=O)Nc3cc(F)c(F)cc3C(=O)N12` the Potency was inconclusive [activator, full curve, poor fit].
In the case of `CC(NC(=O)OCc1ccccc1)c1ccccc1` (configuration not stated), the Potency is reported as inconclusive [activator, partial curve, poor fit].
With `CCn1cc(C2C(C(=O)Nc3cc(C)ccn3)=C(C)NC3=C2C(=O)CC(C)(C)C3)c(C)n1` (configuration not stated) the “growth rescue” value was inactive: 8.36%.
In the case of `Cc1cc(C)c(S(=O)(=O)N2CCN(C3CC(=O)N(c4ccccc4Cl)C3=O)CC2)c(C)c1` (configuration not stated), the Potency is reported as inconclusive [activator, partial curve].
With `C/C(=N\NC(=S)NC(C)C)c1ccco1` the Potency was inconclusive [activator, single point].
With `COc1ccccc1-c1c(C(F)(F)F)oc2cc(OC(=O)c3ccccc3[N+](=O)[O-])ccc2c1=O` the Potency was inconclusive [activator, single point].
With `CCCCn1nc(NC(=O)COC)c2cc3cc(OC)ccc3nc21` the Potency was inconclusive [activator, partial curve, poor fit].

From PubChem BioAssay AID1347071 (National Center for Advancing Translational Sciences (NCATS), 2019)
Potency means the concentration at half of the fitted maximal effect; tags describe the fitted curve by direction and shape.
